Source: the supplement of paper PMC7826260
The list shows a part of the results. One pool of 16,384 single-stranded DNAs met each Rep nickase domain in vitro for 1 h at 37 °C with 3 µM enzyme; only the middle of the 90-letter strands is printed. Uncut reads are compared with the no-enzyme pool on a log2 scale; more negative means more cut, near 0 not cut, and no call is made. Counts are relative to all reads; where an enzyme cuts many sequences, the uncut ones exceed 0.

Tests used:
Assay in all cases: uncleaved DNA left, log2 of reads against the no-enzyme library (log2 ratio); higher = less cleavage (more negative = more Rep cleavage of the k-mer); sequences stand for … in CTCGTCCG…ACCGGAGA
[1] = tested on: T1, Rep nickase domain of Muscovy duck circovirus
T1 sequence (residues 1-111 of Rep, tag left off): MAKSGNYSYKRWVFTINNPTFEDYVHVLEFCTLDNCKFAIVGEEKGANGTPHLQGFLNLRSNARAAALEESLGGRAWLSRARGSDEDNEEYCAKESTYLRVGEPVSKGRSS
Method: (§1)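 A pool of 90-nt single-stranded DNAs with seven random bases just before the constant AC of the nick site (name = the seven bases) was cut by 3 µM recombinant His6-SUMO-tagged Rep nickase domain (300 nM DNA, 50 mM HEPES pH 8.0, 50 mM NaCl, 1 mM MnCl2, 1 h, 37 °C, three replicates). Uncut DNA was amplified and sequenced.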

[2] = tested on: T2, Rep nickase domain of banana bunchy top virus
T2 sequence (residues 1-94 of Rep, tag left off): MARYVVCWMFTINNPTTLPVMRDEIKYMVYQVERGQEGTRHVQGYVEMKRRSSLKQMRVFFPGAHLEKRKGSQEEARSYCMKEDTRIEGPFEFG
Method: as §1

[3] = tested on: T3, Rep nickase domain of cabbage leaf curl virus
T3 sequence (residues 1-116 of Rep, tag left off): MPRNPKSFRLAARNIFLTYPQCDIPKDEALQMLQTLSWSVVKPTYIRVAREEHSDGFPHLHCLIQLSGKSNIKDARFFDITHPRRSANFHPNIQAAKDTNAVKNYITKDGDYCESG
Method: as §1

[4] = tested on: T4, Rep nickase domain of chickpea chlorotic dwarf virus
T4 sequence (residues 1-124 of Rep, tag left off): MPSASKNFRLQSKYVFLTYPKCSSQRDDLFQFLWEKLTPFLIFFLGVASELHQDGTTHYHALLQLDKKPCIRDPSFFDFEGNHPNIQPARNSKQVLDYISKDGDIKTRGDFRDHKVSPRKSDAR
Method: as §1

[5] = tested on: T5, Rep nickase domain of faba bean necrotic yellows virus
T5 sequence (residues 1-98 of Rep, tag left off): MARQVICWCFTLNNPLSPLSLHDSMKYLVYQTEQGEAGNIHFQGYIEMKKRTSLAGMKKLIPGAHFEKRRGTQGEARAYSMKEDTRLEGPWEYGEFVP
Method: as §1

[6] = tested on: T6, Rep nickase domain of maize striate mosaic virus
T6 sequence (residues 1-117 of Rep, tag left off): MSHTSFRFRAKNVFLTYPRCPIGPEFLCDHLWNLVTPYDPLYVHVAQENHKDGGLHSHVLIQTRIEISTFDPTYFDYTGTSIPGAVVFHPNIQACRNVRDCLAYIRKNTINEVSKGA
Method: as §1

[7] = tested on: T7, Rep nickase domain of porcine circovirus 2
T7 sequence (residues 2-116 of Rep, tag left off): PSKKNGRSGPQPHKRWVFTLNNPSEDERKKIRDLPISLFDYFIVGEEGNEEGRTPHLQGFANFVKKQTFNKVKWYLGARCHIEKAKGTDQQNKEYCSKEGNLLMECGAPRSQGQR
Method: as §1

[8] = tested on: T8, Rep nickase domain of tomato golden mosaic virus
T8 sequence (residues 1-124 of Rep, tag left off): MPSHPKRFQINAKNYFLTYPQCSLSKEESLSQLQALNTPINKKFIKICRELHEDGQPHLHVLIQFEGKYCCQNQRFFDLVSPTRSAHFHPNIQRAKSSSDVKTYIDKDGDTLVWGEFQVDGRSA
Method: as §1

[9] = tested on: T9, Rep nickase domain of tomato yellow leaf curl virus
T9 sequence (residues 1-136 of Rep, tag left off): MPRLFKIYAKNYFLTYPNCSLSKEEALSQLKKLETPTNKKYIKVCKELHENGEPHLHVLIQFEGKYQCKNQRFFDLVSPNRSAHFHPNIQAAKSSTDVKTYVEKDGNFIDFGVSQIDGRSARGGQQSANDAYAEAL
Method: as §1

[10] = tested on: T10, Rep nickase domain of wheat dwarf virus
T10 sequence (residues 1-137 of Rep, tag left off): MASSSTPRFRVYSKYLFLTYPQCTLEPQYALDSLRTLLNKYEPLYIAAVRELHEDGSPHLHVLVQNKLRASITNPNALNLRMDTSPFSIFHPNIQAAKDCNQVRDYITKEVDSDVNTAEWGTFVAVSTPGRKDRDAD
Method: as §1

Sequence	uncleaved DNA left (log2) [1]	uncleaved DNA left (log2) [2]	uncleaved DNA left (log2) [3]	uncleaved DNA left (log2) [4]	uncleaved DNA left (log2) [5]	uncleaved DNA left (log2) [6]	uncleaved DNA left (log2) [7]	uncleaved DNA left (log2) [8]	uncleaved DNA left (log2) [9]	uncleaved DNA left (log2) [10]
AGTCATG	0.0317	0.0197	-0.0752	0.261	0.0586	0.0925	0.0936	0.18	0.108	0.0897
GGGGCGG	0.0781	0.1	0.788	1.76	-0.0467	2.16	0.196	0.12	-0.129	0.0194
CGCCTTG	-0.154	-0.287	-0.411	-0.135	-0.169	0.0402	-0.102	-0.31	-0.211	-0.114
GTCCCGA	0.0455	0.0353	0.304	0.742	-0.0351	1.32	0.167	0.0349	-0.0233	0.0285
TGATCAC	0.013	0.128	0.335	0.697	-0.0235	0.866	0.104	-0.0295	0.21	0.271
GGTGAGG	0.0805	0.0176	0.52	1.22	-0.0645	1.66	0.224	0.0796	0.0626	0.0323
TTTCCTC	-0.0247	0.0338	0.198	-0.34	-0.0252	-0.317	-0.58	-0.0847	0.0866	0.0835
GCTGAAT	0.0183	0.0515	0.189	0.535	0.127	0.91	0.108	0.153	0.109	0.198
GAGTACA	0.0126	0.0104	0.46	0.0208	-0.0831	1.61	-2.41	0.0399	0.00607	0.0748
CTTTTAG	0.0546	-0.201	-0.9	-0.254	0.00272	-1.22	0.193	-0.0739	-0.089	-0.146
CGTCTCG	0.0287	0.155	-0.626	-0.3	0.104	-0.647	0.239	0.0604	0.0408	-0.0545
GCGATCA	-0.0629	0.0377	0.0293	0.356	-0.0533	0.656	-0.0954	-0.0646	-0.0564	0.0563
CCATATA	-0.0813	0.00719	-0.187	-1.63	0.0205	-0.94	-0.0572	0.094	-0.112	-0.0883
ACCCCCG	-0.305	-0.113	-0.825	0.377	-0.0657	-0.606	-0.114	-0.111	-0.191	-0.213
CGTAAAA	0.024	0.0798	0.00829	0.172	0.00904	-0.689	0.0286	0.0493	-0.0157	0.0393
TCTTGTC	0.0844	-0.128	-0.0774	-0.546	0.0437	-0.926	0.0751	-0.0836	0.0164	0.0296
GGGCGTC	0.0685	0.0944	0.803	1.75	-0.0919	2.11	0.159	-0.0997	-0.0307	0.121
CGCAACA	0.0227	0.0918	-0.106	-1.57	0.0414	-0.328	0.0253	0.0578	0.0474	-0.034
TCTGACT	0.106	0.0266	0.0448	-0.3	-0.000319	0.572	0.0127	-0.0184	-0.0312	0.068
CAAGCTG	-0.0404	0.0641	0.347	1.46	0.0195	1.68	0.101	0.0123	-0.0995	0.0224
GCCCATC	0.0692	0.0243	0.16	0.603	-0.0284	0.0903	0.0835	0.0169	0.0578	-0.112
ATGCTTC	0.102	-0.0248	0.00889	-0.314	-0.0698	-0.898	0.0459	-0.019	-0.0966	-0.00404
ACGATTT	-0.0883	-0.159	-0.216	-2.43	-0.0896	-0.445	-0.355	-0.0459	-0.106	-0.0237
CGTTTGG	-0.0373	-0.0104	-0.438	-0.455	0.0519	-0.918	0.0429	-0.07	-0.0294	-0.0215
ATGCCGC	0.0545	0.0811	-0.494	-0.481	0.0427	-0.732	0.122	-0.0843	-0.0111	-0.0402
CGGGAGG	0.0265	-0.047	0.413	0.842	-0.174	0.739	-0.0493	-0.0201	-0.15	-0.227
CCTCATG	-0.116	-0.347	-0.494	-0.327	-0.0703	-0.887	-0.000847	-0.00689	-0.203	-0.091
TAGCCGA	-0.00594	-0.132	-0.592	-0.821	-0.0269	-1.04	-0.0605	-0.0688	0.0308	-0.0574
GCGAATA	0.0164	0.137	-0.00374	0.379	0.00464	0.84	0.0751	0.0528	0.0883	0.055
GCACGTG	-0.0189	0.000776	-0.292	-0.219	0.0483	-0.704	0.0422	-0.0103	0.0768	-0.0273
